According to PubChem BioAssay AID1745853 (National Center for Advancing Translational Sciences (NCATS), 2022):
Some of the results follow. The main result of the screen is listed elsewhere. These columns were measured beside it and carry no call.

How the values were obtained:
Experiment in all cases: Primary Screen for Target Class Profiling of Small Molecule Inhibitors of Methyltransferases
[1] = target: Glycine N-methyltransferase (Homo sapiens) (UniProt Q14749); conditions: purified enzyme, MTase-Glo SAH luminescence; measured here: GNMT inhibition; at 40 µM; stronger effect = lower value
Method in brief: (§1)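 Each enzyme was reacted with SAM and its substrate, with compounds tested once at 40 uM; SAH formed was read by MTase-Glo luminescence.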

[2] = target: Guanidinoacetate N-methyltransferase (Homo sapiens) (UniProt Q14353); conditions: purified enzyme, MTase-Glo SAH luminescence; measured here: GAMT inhibition; at 40 µM; stronger effect = lower value
Method in brief: as §1

[3] = target: Histamine N-methyltransferase (Homo sapiens) (UniProt P50135); conditions: purified enzyme, MTase-Glo SAH luminescence; measured here: HNMT inhibition; at 40 µM; stronger effect = lower value
Method in brief: as §1

[4] = target: Nicotinamide N-methyltransferase (Homo sapiens) (UniProt P40261); conditions: purified enzyme, MTase-Glo SAH luminescence; measured here: NNMT inhibition; at 40 µM; stronger effect = lower value
Method in brief: as §1

[5] = target: Phenylethanolamine N-methyltransferase (Homo sapiens) (UniProt P11086); conditions: purified enzyme, MTase-Glo SAH luminescence; measured here: PNMT inhibition; at 40 µM; stronger effect = lower value
Method in brief: as §1
On the % scale 0 is the no-effect control and ±100 the full control effect.

| SMILES | activity change, negative = inhibition [1] | activity change, negative = inhibition [2] | activity change, negative = inhibition [3] | activity change, negative = inhibition [4] | activity change, negative = inhibition [5] |
| --- | --- | --- | --- | --- | --- |
| O=C(Cn1nc2nc(Nc3ccc(F)cc3)ccn2c1=O)NCc1ccc2c(c1)OCO2 | 3.84% | 0.58% | 11.7% | 1.25% | 6.23% |
| CC(c1ccc(-c2cc(N)ncn2)cc1)N1CCCCC1 (stereo not drawn) | -2.01% | 0.357% | -29.8% | -5.9% | -11.1% |
| CCCCNc1nc(N)c2[nH]c(=O)n(Cc3ccc(OCCN(C)C)nc3)c2n1 | -17.9% | 0.762% | -17.5% | -18.2% | -1.33% |
| COC(=O)C(C)Oc1ccc2c(-c3ccccc3)cc(=O)oc2c1 (stereo not drawn) | -2.77% | 4.88% | 7.8% | -7.38% | -10.5% |
| CCCCN1C(=O)c2ccc(-c3ccco3)n2CC1(C)C(=O)NC1CCCC1 (stereo not drawn) | 1.78% | 2.37% | 8.82% | 8.84% | 1.95% |
| Cc1ccc(CCNC(=O)CCCc2nnc3n4nc(-c5ccccc5)nc4c4ccccc4n23)cc1 | 3.74% | 5.03% | 9.68% | 5.94% | -1.17% |
| CCCSCCCN1C(=O)c2cc3occc3n2CC1(C)C(=O)NC1CCCCCCC1 (stereo not drawn) | -3.25% | 0% | 3.64% | -0.815% | -3.99% |
| CCCCOc1ccc(CC/C=C2\SC(=O)N(CCN)C2=O)cc1 |  | 15.7% |  | -23.5% | -0.562% |
| Cn1c(=O)[nH]cc(CC(=O)N2C[C@H](C3CC3)[C@@H](N)C2)c1=O | -5.92% | -10.1% | -3.58% | -5.18% | -7.92% |
| CN(C)c1ccc(CN2CCC(N3CCCCCC3=O)CC2)cc1 | -5.63% | -4.39% | -6.66% | -12.8% | -10.1% |
| CN(C)Cc1cc(C[C@@H]2CC[C@H](O)[C@@H](CNC(=O)N3CCOCC3)O2)no1 | -1.86% | 0.158% | 0.567% | -2% | -6.27% |
| CCCN(C/C=C/c1ccccc1)C(=O)c1cccc(OCC(N)=O)c1 | -5.63% | -6.3% | -3.02% | -13.2% | -0.592% |
| CC(C)c1nc2c(c(-c3ccc(O)cc3)n1)CCN(CC1CCCCC1)CC2 | -8.11% | -10.7% | -15.5% | -30.4% | -19.1% |
| C[C@]12C[C@H](O)[C@H]3[C@@H](CCC4=CC(=O)CC[C@@]43C)[C@@H]1CC[C@@H]2C(=O)CO | -15.2% | 7.89% | -0.005% | -8.65% | 7.84% |
| CCCn1c(=O)c2ccc(C(=O)NC(C)CC)cc2n2c(SCC(=O)Nc3ccccc3F)nnc12 (stereo not drawn) | 3.84% | 0% | 6.54% | -1.96% | 5.51% |
| COc1ccc(OC)c(S(=O)(=O)N2CCCCC2)c1 | -0.751% | 4.08% | 4.87% | 3.05% | 0.999% |
| COc1ccc(S(=O)(=O)Nc2cccnc2Nc2ccc(O)cc2)cc1 | 4.72% | -4.52% | 7.33% | -21.2% | -16.5% |
| O=C(Nc1cc2cc[nH]c2cn1)c1ccccc1 | -88% | -85.2% | -77.1% | -89.6% | -81.6% |
| CC(=O)Nc1c2n(c3ccc(F)cc13)CC(C)(C(=O)NC1CCCCCC1)N(CCC(C)C)C2=O (stereo not drawn) | -6.01% | -2.36% | -1.03% | -6.98% | -2.43% |
| CNc1nc(C)nc(N[C@H]2CCC[C@@H](C(=O)NCc3ccc(C#N)cc3C(F)(F)F)C2)n1 | 3.65% | -0.172% | 7.79% | -28.1% | -0.362% |
| C=CCCN1CCC2(CC1)CN(C(=O)c1c(F)cccc1F)c1ccc(Cl)cc12 | -2.48% | 3% | 8.63% | -27.2% | -4.29% |
| Cc1ccc(N2CC(c3noc(-c4ccc5ccccc5n4)n3)CC2=O)cc1 (stereo not drawn) | -5.09% | -12.7% | -5.99% | -15.8% | -11.5% |
| COC(=O)c1cc2n(n1)CC(C)(C(=O)NC1CCC(C)CC1)N(c1ccc(C)cc1Cl)C2=O (stereo not drawn) | 5.03% | 0.008% | 10.3% | -1.03% | 3.37% |
| COCCn1ncc(N2CCC(C(=O)N3CCN(C(C)C)CC3)C2)cc1=O (stereo not drawn) | -4.56% | -9.48% | -2.32% | -9.51% | -3.26% |
| CCCC1c2cccn2CCN1C(=O)Nc1ccc(C)cc1 (stereo not drawn) | -0.965% | 5.04% | -5.63% | 7.27% | 8.69% |
| C[C@@H]1O[C@@H](O[C@H]2[C@@H]3C=CO[C@@H](O[C@@H]4O[C@H](CO)[C@@H](O)[C@H](O)[C@H]4O)[C@@H]3[C@@]3(CO)O[C@@H]23)[C@H](OC(=O)/C=C/c2ccccc2)[C@H](O)[C@H]1O | -2.72% | -10.1% | 1.83% | -17.9% | -0.984% |
| CC1(C(=O)NC2CCCCC2)Cn2c(ccc2-c2ccco2)C(=O)N1CCN1CCCCCC1 (stereo not drawn) | 1.25% | 2.63% | -6.58% | 2.03% | -1.78% |
| CC(=O)Nc1c2n(c3ccc(F)cc13)CC(C)(C(=O)NCCC(C)C)N(Cc1cccs1)C2=O (stereo not drawn) | -8.99% | 1.23% | 3.74% | -0.243% | 0.631% |
| CC(C)NC(=O)CSc1nnc2n(C)c(=O)c3ccc(C(=O)NC4CCCC4)cc3n12 | -3.85% | 4% | 3.94% | -0.848% | 1.54% |
| C[C@H](Oc1ccc(S(C)(=O)=O)cc1C(=O)N1CCN(c2ncc(C(F)(F)F)cc2F)CC1)C(F)(F)F | -3.79% | 7.71% | 9.54% | -11.4% | -0.618% |
